Assay results published in PubChem BioAssay AID485344 (National Center for Advancing Translational Sciences (NCATS), 2010).
Out of some 340,000 compounds screened, about 6,900 (2%) were called active. Rule as the data show it: active = inhibition above about 30%; inactive = below that, where a call was filed. Only a part is listed here, and it is no random draw. Entries without a call were filed so in the source. Where a structure was tested more than once in an assay, its records may differ in their call.

target: D(2) dopamine receptor (Homo sapiens) (UniProt P14416); experiment: HTS Assay for Allosteric Antagonists of the Human D2 Dopamine Receptor: Primary Screen for Antagonists; conditions: HEK293 TREx D2 cells, calcium flux, dopamine EC80; at 10 µM; stronger effect = higher value; also: 0% is about no effect
UniProt P14416, sequence (P14416 whole entry, looked up): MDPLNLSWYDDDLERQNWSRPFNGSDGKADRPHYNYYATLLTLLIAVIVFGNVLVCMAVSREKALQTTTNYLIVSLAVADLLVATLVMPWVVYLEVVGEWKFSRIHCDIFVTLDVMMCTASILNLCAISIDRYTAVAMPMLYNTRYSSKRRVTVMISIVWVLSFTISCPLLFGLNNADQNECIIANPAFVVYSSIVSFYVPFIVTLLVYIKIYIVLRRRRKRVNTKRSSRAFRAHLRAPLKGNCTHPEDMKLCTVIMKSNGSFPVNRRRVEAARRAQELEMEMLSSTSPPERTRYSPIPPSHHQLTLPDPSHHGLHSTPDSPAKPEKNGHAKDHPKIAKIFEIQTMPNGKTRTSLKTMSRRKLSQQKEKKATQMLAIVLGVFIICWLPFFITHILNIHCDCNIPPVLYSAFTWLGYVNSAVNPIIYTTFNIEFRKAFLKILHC
Text: NIH Chemical Genomics Center [NCGC] NIH Molecular Libraries Probe Centers Network [MLPCN] MLPCN Grant: NS064831-01 Assay Submitter (PI): David Sibley Dopamine receptors (DARs) are involved in the etiology and/or therapy of a number of neuropsychiatric and endocrine disorders. For instance, all receptor-based antiparkinsonian drugs work via stimulating the D2 DAR subtype whereas all FDA-approved antipsychotic agents are antagonists of this receptor. […] There are three different types of allosteric modulators that we are seeking, two of which will stimulate or augment receptor signaling, allosteric agonists and potentiators, while the third, allosteric antagonists, will attenuate receptor signaling. The present primary screening assay measures compound antagonism after an EC80 addition of dopamine by tracking calcium flux in a […], inducible Hek293 Trex D2 cell line.
Freshly passaged cells are plated in 1536 well black, clear bottom plates at a density of 4000 cells/well in 3 ul of complete media containing 1x tetracycline inducer. After an overnight incubation at 30 C in 5% CO2, cells are loaded with 2 ul of the no wash Calcium Assay Kit (ABD Bioquest) and incubated at room temperature for 30 to 90 minutes. Agonist read: A 10 cycle (1 second/cycle) baseline measurement is taken and then the FDSS online 1536 pintool delivers 23 nl of compound library (as well as dopamine controls) to the plate. The plate is measured for kinetically at 1 cycle/sec for 180 seconds. Following the 180 second read, 1 ul of an EC80 (negative modulation assay) is delivered by an onboard pipette head. Measurements are taken kinetically for an additional 180 seconds.

| Structure (SMILES) | inhibition |
| --- | --- |
| CCOC(=O)CNC(c1ccccc1)c1cc(Br)ccc1NC(=O)c1cccc(Cl)c1 (centres undefined) | -9.46% |
| Cc1ccc(Cl)cc1N1CCN(C(=O)c2cc(S(=O)(=O)N3CCCC3)c[nH]2)CC1 | 11.1% |
| CC(=O)N1CCCc2cc(S(=O)(=O)N3CCC(C(=O)NCc4ccccc4)CC3)ccc21 | 16.2% |
| CCN1C(=O)c2ccccc2S(=O)c2ccc(C(=O)N3CCCCCC3)cc21 (centres undefined) | active: 32.3% |
| CCc1nnc(SCC(=O)N(CC)c2ccccc2)c2cc3oc(C)cc3n12 | 8.68% |
| CCN(Cc1ccccc1)C(=O)Cn1c(=O)n(-c2ccc(Cl)cc2)c(=O)c2c(C)c(C)sc21 | -4.42% |
| Cc1ccc(CN2CCSc3ccc(C(=O)Nc4ccc(C)cc4)cc32)cc1 | -11.8% |
| CCCCNC(=O)c1ccccc1NC(=O)CN(c1ccccc1)S(=O)(=O)N(C)C | 3.17% |
| O=C(Nc1ccc(NC(=O)c2ccc([N+](=O)[O-])o2)cc1Cl)c1ccco1 | active: 39.8% |
| Cc1ccc2c(=O)cc(C(=O)Nc3ccc(S(=O)(=O)N4CCCCCC4)cc3)oc2c1 | 8.88% |
| O=C(CSc1nc(=O)n(Cc2ccco2)c2c1CCC2)Nc1ccccc1C(F)(F)F | 23.6% |
| CC(C)c1ccc(NC(=O)CSC2=Nc3ccccc3C3=NC(CCC(=O)NCc4ccco4)C(=O)N23)cc1 (centres undefined) | 14.8% |
| Cc1ccc(NC2=C(Cl)C(=O)OC2NC(=O)c2ccccc2)cc1 (centres undefined) | active: 54.9% |
| Cc1ccc(S(=O)(=O)N(C)C)cc1NC(=O)Nc1ccccc1 | active: 84.4% |
| Cc1cccc(S(=O)(=O)c2cn(C)c3cc(N4CCN(c5ccc(F)cc5)CC4)c(F)cc3c2=O)c1 | -1.57% |
| COc1ccc(OC)c(CCNC(=O)CCn2c(=O)c3cccn3c3ccc(F)cc32)c1 | 2.75% |
| CCOc1cc(C)nc(N2CCN(C3CCCCC3)CC2)n1 | active: 40.1% |
| COc1ccc(C)cc1NC(=O)COCc1cc(-c2ccc(F)cc2)on1 | 5.87% |
| CC(C)(C)C(=O)OCc1cc(=O)n2nc(C3CC3)sc2n1 | 7.91% |
| Cc1ccc(N2CCN(S(=O)(=O)c3c(C)[nH]c(=O)[nH]c3=O)CC2C)cc1 (centres undefined) | 13.1% |
| CCCN(CCC)c1nn2c(=O)c(C(=O)NCc3cc(Br)ccc3OC)cnc2s1 | -7.28% |
| CCOC(=O)c1cc(-c2ccccc2)n(CC(=O)Nc2ccc(CC)cc2)c1C | 1.75% |
| O=C(CSc1nc2c(oc3ccccc32)c(=O)n1Cc1ccco1)Nc1ccccc1 | -2.1% |
| Cc1ccc(CN2CCCN(Cc3c(C)cc(C)cc3C)S2(=O)=O)cc1 | -7.35% |

| Structure (SMILES) | inhibition |
| --- | --- |
| CCCSC1=NC2(CCN(C(=O)NC3CCCCC3)CC2)N=C1c1ccc(Cl)cc1 | 7.64% |
| O=C(COc1ccccc1F)Nc1c(C(=O)Nc2cccc(F)c2)oc2ccccc12 | -22.1% |
| Cc1ccc(C(=O)Nc2nc3nc(-c4ccccc4)cc(=O)n3[nH]2)cc1 | -14.1% |
| O=C(NCCCN1CCN(c2ccccc2F)CC1)Nc1ccccc1[N+](=O)[O-] | active: 99% |
| O=C(Nc1cc(-c2ccccc2F)nn1-c1ccccc1)c1ccccc1Br | 7.67% |
| CCCCCOC(=O)CSc1nc2sc3c(c2c(=O)n1-c1ccccc1)CC(C)(CC)OC3 (centres undefined) | -1.52% |
| COc1ccc(Cn2ccn(Cc3cccc(Cl)c3)c(=O)c2=O)cc1 | 2.17% |
| Cc1ccc(S(=O)(=O)Cc2nc(-c3ccc(C(=O)NCc4ccccc4C)cc3)oc2C)cc1 | 9.54% |
| CCOc1cc(C(=O)Nc2ccc3c(c2)OCO3)ccc1OCCOc1ccccc1Cl | active: 31.8% |
| CCOc1ccc(-c2nonc2NC(=O)c2oc3ccc(C)cc3c2C)cc1OCC | -26% |
| O=C(CCCCl)N1CCc2[nH]c3ccccc3c2C1 | active: 31.8% |
| Cc1ccc(CN2CCC(c3cc(-c4cccs4)n[nH]3)CC2)cc1 | active: 69.9% |
| CCCN1CCC2(CC1)C(C#N)=C(N)Oc1c2sc2nc(C)cc(C)c12 | active: 95.9% |
| CCCn1cc(S(=O)(=O)c2ccc(OC)cc2)c(=O)c2cc(F)c(N3CCCC(C)C3)cc21 (centres undefined) | 5.16% |
| CC(=O)c1ccc(NC(=O)C2=CC(c3ccc(C)cc3)=NS(=O)(=O)N2C)cc1 | -2% |
| COc1ccc(-c2cc(C)no2)cc1S(=O)(=O)NCc1ccco1 | 28.3% |
| CCN(CC)S(=O)(=O)c1ccc2c(c1)c(=O)c(C(=O)NCc1ccccc1Cl)cn2C | 18.6% |
| COc1ccc(S(=O)(=O)N2CCN(C3CCCCCCC3)CC2)cc1 | active: 34.3% |
| CCOC(=O)c1c(-c2ccc(C)cc2)csc1NC(=O)c1cc(=O)c2cc(C)cc(C)c2o1 | 17.1% |
| COc1ccc(-n2c(SCc3ccccc3F)nc3c([nH]c4ccccc43)c2=O)cc1OC | 4.48% |
| O=C(CSc1c2c(nc3cc(Cl)ccc13)CCCC2)N1CCN(c2ccccc2)CC1 | -14.6% |
| CC1CCN(C(=O)Cn2cc(SCC(=O)Nc3ccccc3)c3ccccc32)CC1 | -0.633% |
| COc1cccc(-c2nc(SCC(=O)NCc3ccco3)c3c(=O)n(C)c(=O)n(C)c3n2)c1 | 4.53% |
| CCOC(=O)c1noc2ncnc(N3CCN(c4cccc(C(F)(F)F)c4)CC3)c12 | 7.76% |

| Structure (SMILES) | inhibition |
| --- | --- |
| COc1ccc(Cn2c(=O)n(-c3ccc(OC)cc3)c(=O)c3c2c2cc(OC)ccc2n3C)cc1 | 4.23% |
| O=C(NCc1ccc(Cl)cc1)C1CCN(c2ncnc3c2nc2n3CCCCC2)CC1 | -14.2% |
| CCOc1ccccc1C(=O)NCC(c1cccs1)S(=O)(=O)c1ccc(F)c(C)c1 (centres undefined) | -11.5% |
| CCc1ccc(NC(=O)CSc2nc3c(c(=O)[nH]2)CN(Cc2ccc(C)cc2)CC3)cc1 | 4.52% |
| COCc1cc(C)nc2c1C(=O)NC(c1ccc(Br)cc1)N2Cc1ccccc1 (centres undefined) | 3.35% |
| COc1cc(Cl)c(C)cc1NC(=O)Cn1c2ncccc2c(=O)n1-c1ccccc1 | 5.59% |
| CCc1ccc(-n2nnc(-c3nc(-c4ccc(C)cc4)no3)c2N)cc1 | 9.13% |
| CC(C)CN1CCC(=O)N([C@H](CSc2ccc(Br)cc2)Cc2ccccc2)CC1 | active: 35.6% |
| COc1ccc(Cl)cc1C(=O)NCc1nnnn1-c1ccccc1 | -12% |
| CCc1ccc(NC(=O)C(=O)NCC(c2cccnc2)N2CCc3ccccc3C2)cc1 (centres undefined) | -18.8% |
| Cc1cccc(C)c1NC(=S)N/N=C/c1ccc(C(=O)O)cc1 | active: 36.2% |
| COc1nnc(-c2ccc(N3CCCCC3)c(NC(=O)c3ccccc3Cl)c2)c2ccccc12 | 3.13% |
| O=C(Nc1sc2c(c1C(=O)NCc1ccccc1)CCCC2)c1cc(=O)c2ccccc2o1 | 15.8% |
| Cc1nc(-c2ccccc2)sc1CCNC(=O)C(=O)Nc1ccc(F)c(Cl)c1 | -14.4% |
| NC(=O)c1ccccc1NC(=O)CN1c2ccccc2S(=O)(=O)c2ccccc21 | 1.57% |
| Cc1ccc(C)c(N2CCN(C(=O)c3ccc4c(=O)n(CCc5ccccc5)c(=O)[nH]c4c3)CC2)c1 | 4.89% |
| COCCc1nn2c(=O)cc(COC(=O)c3ccccc3C)nc2s1 | 7.86% |
| CCCSCCCNC(=O)CN1C(=O)COc2ccc(S(=O)(=O)N3CCCC3)cc21 | -10% |
| O=C(Nc1cc(-c2ccc(Cl)cc2)no1)c1ccc(F)cc1 | -0.455% |
| COc1ccc(CC(C)N2CCN(c3ccccc3OC)CC2)cc1OC (centres undefined) | active: 88.6% |
| CCOC(=O)c1[nH]c2c(c1Cc1ccccc1OC)C(=O)CC(c1ccccc1)C2 (centres undefined) | 10.2% |
| CCCCn1c(=O)c2oc3ccccc3c2n(Cc2ccccc2C)c1=O | 7.05% |
| COc1ccc(S(=O)(=O)N(CC(=O)Nc2ccccc2Cl)Cc2ccccc2)cc1 | -12% |
| O=C(Nc1cccc(Cl)c1)c1cc(-c2ccc3c(c2)OCO3)on1 | 9.36% |

| Structure (SMILES) | inhibition |
| --- | --- |
| Cc1ccc(CCNC(=O)CN2C(=O)COc3ccc(S(=O)(=O)N4CCCCCC4)cc32)cc1 | -7.2% |
| COc1cc(OC)cc(C(=O)Nc2ccc3nc4n(c(=O)c3c2)CCCCC4)c1 | -10.3% |
| COc1ccccc1C(=O)Oc1c(Sc2ccccc2)c(C)nn1-c1ccccc1 | -11.8% |
| COc1ccc(NS(=O)(=O)c2ccc3[nH]c(=O)ccc3c2)cc1OC | -25.8% |
| COc1cccc(-n2nnc(-c3nc(-c4cccs4)no3)c2N)c1 | 0.597% |
| CCOc1ccc(S(=O)(=O)Nc2cccc(OC)c2)c2cccnc12 | -8.64% |
| COc1cc(NC(=O)CCN2CCN(c3ccccc3F)CC2)cc(OC)c1 | active: 40.2% |
| O=C1CS(=O)(=O)C2(C(=O)N(Cc3ccccc3)c3ccccc32)N1c1ccc(F)c(Cl)c1 (centres undefined) | 9.56% |
| CCOC(=O)CSc1nc2cc(OC)c(OC)cc2c2nc(-c3ccccc3)nn12 | 4.88% |
| COC(=O)c1sccc1S(=O)(=O)N(CC(=O)NCc1ccc(C)cc1)c1ccc(C)c(C)c1 | 17.5% |
| CCOC(=O)C1=C(C)N=C2SCCC(=O)N2C1c1ccc(OCc2ccccc2)c(OC)c1 (centres undefined) | 4.26% |
| Cc1cc(NC(=O)c2cc(Cl)ccc2Cl)ccc1-c1cc2ccccc2oc1=O | -15.8% |
| CC(=O)c1c(C)oc2c1cc(NS(=O)(=O)c1c(C)cc(C)cc1C)c1ccccc12 | 8.61% |
| CCC1CCC(N2CCN(c3ccccc3F)CC2)CC1 (centres undefined) | active: 36.7% |
| NS(=O)(=O)c1ccc(NC(=O)COc2ccc(S(=O)(=O)NC3CCCCC3)cc2)cc1 | -6.86% |
| CCN(CC)C(=O)Cn1c(=O)n(Cc2ccc(C(=O)NCCCOC)cc2)c(=O)c2ccccc21 | 8.01% |
| CCn1c2c(c(=O)n3ncc(C(=O)N4CCN(c5ccc(C(C)=O)cc5)CC4)c13)CN(Cc1ccc(OC)cc1)CC2 | -1.79% |
| Cc1ccc(C)c(N2C(=O)N(Cc3cccc(C(F)(F)F)c3)c3ccccc3S2(=O)=O)c1 | 3.17% |
| COc1ccc(F)cc1S(=O)(=O)Nc1ccc2c(c1)CCCN2C(=O)c1cccs1 | -6.94% |
| CC(=O)c1cccc(NC(=O)[C@H]2O[C@@H]3OC(C)(C)O[C@@H]3[C@H]3OC(C)(C)O[C@H]32)c1 | 8.93% |
| C=CCn1c(SCCCC)nc(O)cc1=O | active: 30.8% |
| COc1ccc(-c2nc3scc(CCNS(=O)(=O)c4ccc(Oc5ccccc5)cc4)n3n2)cc1 | 11% |
